# Measured values published in the supplement of paper PMC8728848.
# The list shows a part of the results.
# B1: Epa1 (Candida glabrata) (protein)
# chain: MGSSHHHHHHSSGLVPRGSHMTSSNDISLASKDPTTFPLGCSPDITTPKKGLSMELYSYDFRKKGSYPCWDAAYLDPNYPRTGYKSHRLLAKVDGVTGNINFYYHATKGCTPQLGHLPASYNYPKPLTMTNFTMLLYGYFRPKVTGFHTFTISADDLLFVNFGAGNAFDCCRRDSSADHFGNYQAYAIWGSKTAKDELTVHLDAGVYYPIRLFYNNREYDGALSFTFKTESNENTVSDFSEYFFSLDDTEEGCPGLISYD
# Assays:
# Test in all cases: glycan array binding signal (z-score within array); higher = stronger binding
# Conditions in all cases: glycan notation: IUPAC condensed, linker removed
# Neu5Ac(a2-8)Neu5Ac = molecular target: Neu5Ac(a2-8)Neu5Ac
# How it was run: (§1)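 Arrays were curated from the Consortium for Functional Glycomics database, 3228 in total, and kept only where the protein sequence was available. Binding is expressed as a within-array Z-score. This score was averaged across arrays of the same protein sequence at different concentrations or buffers and across linkers, and negative values can be read as non-binding.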
# [1] = molecular target: Neu5Ac(a2-8)Neu5Ac(a2-3)Gal(b1-3)GalNAc(b1-4)[Neu5Ac(a2-3)]Gal(b1-4)Glc
# How it was run: as §1
# [2] = molecular target: Neu5Ac(a2-8)Neu5Ac(a2-3)Gal(b1-3)GalNAc(b1-4)[Neu5Ac(a2-8)Neu5Ac(a2-3)]Gal(b1-4)Glc
# How it was run: as §1
# [3] = molecular target: Neu5Ac(a2-8)Neu5Ac(a2-3)Gal(b1-4)Glc
# How it was run: as §1
# [4] = molecular target: Neu5Ac(a2-8)Neu5Ac(a2-3)Gal(b1-4)GlcNAc
# How it was run: as §1
# [5] = molecular target: Neu5Ac(a2-8)Neu5Ac(a2-3)[Gal(b1-3)GalNAc(b1-4)]Gal(b1-4)Glc
# How it was run: as §1
# [6] = molecular target: Neu5Ac(a2-8)Neu5Ac(a2-3)[GalNAc(b1-4)]Gal(b1-4)Glc
# How it was run: as §1
# [7] = molecular target: Neu5Ac(a2-8)Neu5Ac(a2-8)Neu5Ac
# How it was run: as §1
# [8] = molecular target: Neu5Ac(a2-8)Neu5Ac(a2-8)Neu5Ac(a2-3)Gal(b1-4)Glc
# How it was run: as §1
# [9] = molecular target: Neu5Ac(a2-8)Neu5Ac(a2-8)Neu5Ac(a2-3)[Gal(b1-3)GalNAc(b1-4)]Gal(b1-4)Glc
# How it was run: as §1
# [10] = molecular target: Neu5Ac(a2-8)Neu5Ac(a2-8)Neu5Ac(a2-3)[GalNAc(b1-4)]Gal(b1-4)Glc
# How it was run: as §1
# [11] = molecular target: Neu5Ac(a2-8)Neu5Ac(a2-8)Neu5Ac(a2-8)Neu5Ac(a2-3)[GalNAc(b1-4)]Gal(b1-4)Glc
# How it was run: as §1
# [12] = molecular target: Neu5Ac(a2-8)Neu5Gc(a2-3)Gal(b1-4)GlcNAc
# How it was run: as §1
# [13] = molecular target: Neu5Ac(b2-6)Gal(b1-4)GlcNAc
# How it was run: as §1
# Neu5Ac(b2-6)GalNAc = molecular target: Neu5Ac(b2-6)GalNAc
# How it was run: as §1
# [14] = molecular target: Neu5Ac9Ac(a2-3)Gal(b1-3)GlcNAc
# How it was run: as §1
# [15] = molecular target: Neu5Ac9Ac(a2-3)Gal(b1-4)GlcNAc
# How it was run: as §1
# [16] = molecular target: Neu5Ac9Ac(a2-6)Gal(b1-4)GlcNAc
# How it was run: as §1
# [17] = molecular target: Neu5Gc(a2-3)Gal(b1-3)GlcNAc
# How it was run: as §1
# [18] = molecular target: Neu5Gc(a2-3)Gal(b1-3)[Fuc(a1-4)]GlcNAc
# How it was run: as §1
# Neu5Gc(a2-3)Gal(b1-4)Glc = molecular target: Neu5Gc(a2-3)Gal(b1-4)Glc
# How it was run: as §1
# [19] = molecular target: Neu5Gc(a2-3)Gal(b1-4)GlcNAc
# How it was run: as §1
# [20] = molecular target: Neu5Gc(a2-3)Gal(b1-4)GlcNAc(b1-3)Gal(b1-4)GlcNAc(b1-2)Man(a1-3)[Neu5Gc(a2-3)Gal(b1-4)GlcNAc(b1-3)Gal(b1-4)GlcNAc(b1-2)Man(a1-6)]Man(b1-4)GlcNAc(b1-4)GlcNAc
# How it was run: as §1
# [21] = molecular target: Neu5Gc(a2-3)Gal(b1-4)[Fuc(a1-3)]GlcNAc
# How it was run: as §1
# [22] = molecular target: Neu5Gc(a2-6)Gal(b1-4)GlcNAc
# How it was run: as §1
# Neu5Gc(a2-6)GalNAc = molecular target: Neu5Gc(a2-6)GalNAc
# How it was run: as §1
# [23] = molecular target: Neu5Gc(a2-8)Neu5Ac(a2-3)Gal(b1-4)GlcNAc
# How it was run: as §1
# [24] = molecular target: Neu5Gc(a2-8)Neu5Gc(a2-3)Gal(b1-4)GlcNAc
# How it was run: as §1
# [25] = molecular target: Neu5Gc(a2-8)Neu5Gc(a2-3)Gal(b1-4)GlcNAc(b1-3)Gal(b1-4)GlcNAc
# How it was run: as §1
# [26] = molecular target: Neu5Gc(a2-8)Neu5Gc(a2-6)Gal(b1-4)GlcNAc
# How it was run: as §1
# [27] = molecular target: Neu5Gc(b2-6)Gal(b1-4)GlcNAc
# How it was run: as §1
binder,measurement,setting,value
B1,glycan array binding signal (z-score),Neu5Ac(a2-8)Neu5Ac,-0.318
same,glycan array binding signal (z-score),[1],-0.199
same,glycan array binding signal (z-score),[2],0.194
same,glycan array binding signal (z-score),[3],-0.337
same,glycan array binding signal (z-score),[4],-0.339
same,glycan array binding signal (z-score),[5],1.34
same,glycan array binding signal (z-score),[6],-0.341
same,glycan array binding signal (z-score),[7],-0.317
same,glycan array binding signal (z-score),[8],-0.426
same,glycan array binding signal (z-score),[9],-0.265
same,glycan array binding signal (z-score),[10],-0.306
same,glycan array binding signal (z-score),[11],-0.301
same,glycan array binding signal (z-score),[12],-0.332
same,glycan array binding signal (z-score),[13],-0.248
same,glycan array binding signal (z-score),Neu5Ac(b2-6)GalNAc,-0.312
same,glycan array binding signal (z-score),[14],-0.31
same,glycan array binding signal (z-score),[15],-0.34
same,glycan array binding signal (z-score),[16],-0.291
same,glycan array binding signal (z-score),[17],-0.306
same,glycan array binding signal (z-score),[18],-0.288
same,glycan array binding signal (z-score),Neu5Gc(a2-3)Gal(b1-4)Glc,-0.284
same,glycan array binding signal (z-score),[19],-0.309
same,glycan array binding signal (z-score),[20],-0.359
same,glycan array binding signal (z-score),[21],-0.276
same,glycan array binding signal (z-score),[22],-0.293
same,glycan array binding signal (z-score),Neu5Gc(a2-6)GalNAc,-0.311
same,glycan array binding signal (z-score),[23],-0.318
same,glycan array binding signal (z-score),[24],-0.316
same,glycan array binding signal (z-score),[25],-0.319
same,glycan array binding signal (z-score),[26],-0.309
same,glycan array binding signal (z-score),[27],-0.231
